About 1,100 (0.39%) of roughly 280,000 compounds were called active. The shares of active, inactive and inconclusive entries below differ from those in the screen. The call rests on the fitted dose curve; in most records, active means well fitted inhibition curve with a large enough effect; inconclusive means small, poorly fitted or top-dose-only effect, or effect the other way; inactive means flat fitted curve, though single readings scatter. Potencies of inconclusive entries are left out as doubtful fits.
Target: Microtubule-associated protein tau (Homo sapiens) (UniProt P10636)
Assay: qHTS for Inhibitors of Tau Fibril Formation, Fluorescence Polarization; further: nearly all actives have a fitted effect of over 55% in size
Conditions: K18 P301L tau heparin fibrillization, Alexa594 FP, 6 h; series mostly up to 57.7 µM
Procedure, shortened: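 Steps: dispense K18 P301L tau (15 uM plus 0.24 uM Alexa 594 tracer, final) in pH 7 sodium acetate; add compound; add heparin (20 uM final); incubate 6 hr, 37 C; add ThT (30 uM final); after 1 hr ambient, read FP.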
On the % scale 0 is the no-effect control and ±100 the full control effect; potency means the concentration at half of the fitted maximal effect; tags describe the fitted curve by direction and shape.

Sequence of UniProt P10636 (P10636 whole entry, looked up): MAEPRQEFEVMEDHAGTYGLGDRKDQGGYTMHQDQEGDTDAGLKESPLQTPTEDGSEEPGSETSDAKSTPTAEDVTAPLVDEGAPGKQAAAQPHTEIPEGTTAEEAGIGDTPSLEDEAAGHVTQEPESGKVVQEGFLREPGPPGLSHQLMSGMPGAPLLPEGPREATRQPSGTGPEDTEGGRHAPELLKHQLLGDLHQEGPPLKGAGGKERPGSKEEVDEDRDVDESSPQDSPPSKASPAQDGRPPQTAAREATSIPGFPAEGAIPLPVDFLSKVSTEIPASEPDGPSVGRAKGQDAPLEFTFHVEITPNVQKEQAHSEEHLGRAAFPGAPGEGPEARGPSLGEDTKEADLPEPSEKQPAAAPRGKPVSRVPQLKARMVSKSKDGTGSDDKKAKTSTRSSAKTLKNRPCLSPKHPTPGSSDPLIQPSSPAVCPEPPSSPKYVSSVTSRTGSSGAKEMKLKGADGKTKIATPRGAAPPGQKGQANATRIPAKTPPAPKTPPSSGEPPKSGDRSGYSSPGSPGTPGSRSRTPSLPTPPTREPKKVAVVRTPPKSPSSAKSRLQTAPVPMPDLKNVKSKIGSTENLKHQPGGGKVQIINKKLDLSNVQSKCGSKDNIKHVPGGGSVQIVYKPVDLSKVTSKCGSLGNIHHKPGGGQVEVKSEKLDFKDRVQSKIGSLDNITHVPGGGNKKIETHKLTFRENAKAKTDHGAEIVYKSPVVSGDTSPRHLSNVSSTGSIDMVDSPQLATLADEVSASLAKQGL

| Structure (SMILES) | Potency | activity, negative = inhibition |
| --- | --- | --- |
| COc1ccc(CN2COc3ccc4c(-c5ccccc5)cc(=O)oc4c3C2)cc1OC | inactive | – |
| Cc1ccc(Nc2nc3ccccc3nc2Nc2c(C)n(C)n(-c3ccccc3)c2=O)cc1 | inconclusive [activator, full curve, poor fit] | – |
| COc1cc(OC)c(N(C)C(=O)c2sc3nc4n(c(=O)c3c2C)CCCC4)cc1Cl | inconclusive [inhibitor, single point] | – |
| CCn1c(=O)cc(OCC(=O)N2CCN(c3ccc(F)cc3)CC2)c2ccccc21 | inactive | – |
| Cc1ccc(NC(=O)Cn2nnc(C(=O)NCc3ccc4c(c3)OCO4)c2N)cc1Cl | inconclusive [inhibitor, single point] | – |
| COc1ccc2oc(=O)c(-c3nc(-c4cccs4)no3)cc2c1 | inconclusive [inhibitor, single point] | – |
| Cc1cccc(/C=N/NC(=O)c2cc(-c3cccnc3)nc3c2c(C)nn3-c2ccccc2)c1 | inconclusive [inhibitor, single point] | – |
| Cc1onc(C(=O)NN)c1C(=O)N1CCN(C(c2ccccc2)c2ccccc2)CC1 | inconclusive [inhibitor, full curve, poor fit] | – |
| CCCCCCCCCCCCCCCCCC(=O)OCC(C)O (centres undefined) | inconclusive [inhibitor, single point] | – |
| O=C1C2Sc3[nH]c(=O)sc3C(c3cc([N+](=O)[O-])ccc3O)C2C(=O)N1c1ccccc1 (centres undefined) | inconclusive [inhibitor, full curve, poor fit] | – |
| O=S1(=O)C=C(Sc2nnc(-c3ccccc3)o2)c2ccccc21 | inconclusive [inhibitor, single point] | – |
| CSc1nc2sc3c(c2c(=O)n1-c1ccccc1)CCC(C(C)(C)C)C3 (centres undefined) | inactive | – |
| COc1ccc(NC(=O)c2ccc3ccccc3n2)cc1S(=O)(=O)Nc1ccccc1Cl | inconclusive [inhibitor, partial curve] | – |
| COc1ccccc1-c1cc(C(F)(F)F)nc(N2CCCC2)n1 | inconclusive [inhibitor, single point] | – |
| O=C(COc1ccccc1[N+](=O)[O-])N1CCN(S(=O)(=O)c2ccccc2)CC1 | inactive | – |
| COC(=O)C1=C(C(=O)OC)SC2(S1)C(C(=O)OC)=C(C(=O)OC)SC1=C2c2cc(C)cc(C)c2NC1(C)C | inconclusive [inhibitor, partial curve] | – |
| COCCNc1c2c(nc3c(-c4ccccc4)c(C)nn13)CCC2 | inconclusive [activator, single point] | – |
| COc1ccc(C(=O)N/N=C/c2ccc(OC)c(CSc3ccccn3)c2)cc1 | inconclusive [inhibitor, partial curve, poor fit] | – |
| O=C(Nc1cccc(F)c1)c1ccc(-c2ccccc2)s1 | inconclusive [inhibitor, partial curve, poor fit] | – |
| Cc1ccc(-n2nnnc2C(Cl)(Cl)c2nnnn2-c2ccc(C)cc2)cc1 | active: 15.8 µM | – |
| CCOC(=O)c1c(N)sc2c1CCCC2 | inconclusive [inhibitor, single point] | – |
| COc1ccc(/C=C/C(=O)NC(=S)Nc2cc([N+](=O)[O-])ccc2O)cc1OC | inconclusive [activator, full curve, poor fit] | – |
| COC(=O)C(c1ccccc1Cl)N1CCc2sccc2C1 (centres undefined) | inactive | – |

| Structure (SMILES) | Potency | activity, negative = inhibition |
| --- | --- | --- |
| O=C(OC1Cc2c(O)cc(O)cc2OC1c1cc(O)c(O)c(O)c1-c1c(C2Oc3cc(O)cc(O)c3CC2O)cc(O)c(O)c1O)c1cc(O)c(O)c(O)c1 (centres undefined) | inconclusive [inhibitor, partial curve] | – |
| C=CCSc1nc2sc3c(c2c(=O)n1CC)CCc1ccccc1-3 | active: 15.8 µM | – |
| Cc1nc2c(ccc3nc(NC(=O)Cc4cccc5ccccc45)sc32)s1 | inconclusive [inhibitor, partial curve] | – |
| Cc1ccc(CSc2ncnc3ccccc23)cc1 | inconclusive [inhibitor, partial curve, poor fit] | – |
| CCCCCC(=O)c1cc(CC(C(=O)OC)C(=O)OC)cc2cc(OC)c(OC)cc12 | – | inactive: -4.75% [at 11.6 µM] |
| O=C(N/N=C/c1cccs1)C1CC(=O)N(c2ccccc2)C1 (centres undefined) | inactive | – |
| CCCNC(=O)c1ccc2snnc2c1 | inactive | – |
| O=C(O)CC(C(=O)O)n1nc(-c2ccccc2)cc1-c1ccccc1 (centres undefined) | inconclusive [activator, single point] | – |
| COc1cccc(C(=O)Nc2ccccc2-c2nnc(-c3cccc(OC)c3)o2)c1 | inconclusive [inhibitor, full curve] | – |
| O=C(Cn1c(=O)oc2cc(S(=O)(=O)NCc3ccccc3)ccc21)NCc1ccc(Cl)cc1 | inconclusive [inhibitor, single point] | – |
| Cc1cc2cc(C(c3nnnn3C3CCCC3)N(Cc3cccnc3)Cc3ccco3)c(=O)[nH]c2cc1C (centres undefined) | inactive | – |
| Cc1cc(C)n(CC(=O)N/N=C/c2ccccn2)n1 | inactive | – |
| Cn1c(SCC(=O)N2CCc3ccccc32)nc2cccnc21 | inactive | – |
| CC1=C(c2ccc(C)c(C)c2)S(=O)(=O)N=C1N1CCC(C(=O)NC(C)Cc2ccco2)CC1 (centres undefined) | inactive | – |
| Cc1cc(C)cc(-n2c(SCC(=O)Nc3ccc4c(c3)OCCO4)nc3c([nH]c4ccccc43)c2=O)c1 | inconclusive [inhibitor, single point] | – |
| Cc1sc2ncnc(NCc3ccco3)c2c1C | inconclusive [inhibitor, partial curve] | – |
| COCCOC(=O)C1=C(C)NC(=O)NC1c1ccc(-c2cc(Cl)ccc2Cl)o1 (centres undefined) | inactive | – |
| Clc1cccc(-c2nn3c(Cn4cnc5ccccc54)nnc3s2)c1 | inactive | – |
| N#C/C(=C/c1ccc(N2CCOCC2)o1)c1ccc(Cl)cc1 | inconclusive [inhibitor, single point] | – |
| COc1ccc(COc2cc(-c3cccc(OC)c3)nc3ccc(NC(=O)C(C)C)cc23)cc1 | inconclusive [inhibitor, full curve] | – |
| COc1cccc(N2CCN(S(=O)(=O)c3ccc(-c4ccno4)cc3OC)CC2)c1 | inactive | – |
| O=C1OC(/C(=C\Nc2ccc(F)cc2F)[N+](=O)[O-])c2ccccc21 (centres undefined) | inconclusive [inhibitor, single point] | – |
| Cc1ccc(C2SCCN2C(=O)c2ccc([N+](=O)[O-])cc2)cc1 (centres undefined) | inactive | – |

| Structure (SMILES) | Potency | activity, negative = inhibition |
| --- | --- | --- |
| COc1ccc(C)cc1NC(=O)C(Sc1nnc(Nc2ccccc2F)s1)c1ccccc1 (centres undefined) | inconclusive [inhibitor, partial curve] | – |
| O=C(O)Cc1csc(Nc2cccc(Cl)c2)n1 | inconclusive [activator, partial curve] | – |
| Nc1c(C(=O)Nc2ccc(F)c(F)c2)sc2nc(-c3ccncc3)ccc12 | inactive | – |
| COc1ccc(S(=O)(=O)Nc2ccc3c(c2)CCCN3S(=O)(=O)c2ccc(C)cc2)cc1F | inconclusive [inhibitor, single point] | – |
| O=C(Nc1ccc2nc(SCC(=O)N3CCCc4ccccc43)sc2c1)c1ccccc1 | inconclusive [inhibitor, partial curve] | – |
| COC(=O)c1oc2ccc(Br)cc2c1-n1cccc1 | inconclusive [inhibitor, single point] | – |
| Cc1[nH]c2ccccc2c1C(=O)COC(=O)c1c(-c2ccccc2Cl)noc1C | inconclusive [inhibitor, partial curve, poor fit] | – |
| CCOc1ccc(-n2c(-c3ccco3)nc3c(cnn3-c3ccc(C)cc3)c2=O)cc1 | inactive | – |
| COc1ccccc1NC(=O)C1=C(C)Nc2nc(SCc3ccccc3F)nn2C1c1cccs1 (centres undefined) | inconclusive [inhibitor, single point] | – |
| Cn1cc2ccc([N+](=O)[O-])cc2n1 | inconclusive [inhibitor, full curve, poor fit] | – |
| O=C(Nc1ccccc1)Nc1nnc(SCc2ccc(Cl)cc2)s1 | inconclusive [inhibitor, full curve] | – |
| Nc1nc(N)c2cc(Sc3ccc4ccccc4c3)ccc2n1 | inconclusive [inhibitor, single point] | – |
| CCc1cccc(C)c1NC(=S)NCC1CCN(c2ccc(OC)cc2)C1 (centres undefined) | inactive | – |
| Cc1cccn2c(=O)c3cc(C(N)=S)c(=N)n(CCCOC(C)C)c3nc12 | inactive | – |
| Cc1cc2ccccn2c1C(C[N+](=O)[O-])c1ccc(N(C)C)cc1 (centres undefined) | inconclusive [inhibitor, single point] | – |
| CC1=C(C(=O)OCC(C)C)C(c2ccc(F)cc2)NC(=O)N1 (centres undefined) | inconclusive [inhibitor, single point] | – |
| O=C(Nc1nnc(Cc2ccc(Cl)cc2)s1)c1ccco1 | inactive | – |
| COc1ccccc1C(=O)NCCc1c(C)[nH]c2c(C)ccc(F)c12 | inactive | – |
| CC(=O)c1ccc(NC(=O)c2ccc(-c3nc(CSc4ccccc4)c(C)o3)cc2)cc1 | inconclusive [inhibitor, single point] | – |
| Cn1cccc1Cc1nnc(SCC(=O)N2CCCc3ccccc32)n1-c1ccc(F)cc1 | inactive | – |
| Cc1ccc(-n2c(Cc3cccn3C)nnc2SCC(=O)N2CCc3ccccc32)cc1 | inactive | – |
| Fc1ccc(-c2noc3ncnc(NCC4CCN(Cc5ccc(Cl)cc5)CC4)c23)cc1 | inactive | – |
| O=C(C1=C(O)C(=O)N(c2nccs2)C1c1ccccc1)c1cc2ccccc2o1 (centres undefined) | inactive | – |

From PubChem BioAssay AID1468 (National Center for Advancing Translational Sciences (NCATS), 2008)
